Measurements from the RNAGym collection of RNA variant scans (doi:10.7554/elife.90254).
Read counts are not given, so values of variants with three or more changes are uncertain.

B1: LINE1-mini (parent)
chain: GGCAGAGCUCAACACAGCGUGGCAAAGUGGCUGUGGCUAGACUGCC

Variants of: B1
Assay: self-cleavage, relative activity (ratio to wild type); higher = more cleavage; in vitro, sequencing; the parent is a self-cleaving ribozyme
G2U C3A A4C C23U A24G showed a self-cleavage of 0.07. With G2U A14U U20A A25U G30U C42G the self-cleavage was 0.08. In the case of G2U A12C A26G, the self-cleavage is reported as 0.03. In the case of G2U G5A G29U G36A U43C C46A, the self-cleavage is reported as 0.16. Variant G2U C3A A6U C42U has a self-cleavage of 0.14. G2U C10A G27C showed a self-cleavage of 0.04. For G2U C8G A12C G40C A41U U43C C45A, the self-cleavage was 0.01. For G2U A25G G29A, the self-cleavage was 0.02. For G2U A12G G35U G44U, the self-cleavage was 0.05. Variant G2U C10A A11C U32C has a self-cleavage of 0. G2U C13A C46G showed a self-cleavage of 0.04. With G2U C13A C46A the self-cleavage was 0.02. In the case of G2U C31A G33C A41U, the self-cleavage is reported as 0.08. Work on G2U A26U G30A C31A yielded a self-cleavage of 0.02. Variant G2U C15U C18A U34A C37G has a self-cleavage of 0.02. G2U A12U A14C C18A U28C G29C C31A C42G showed a self-cleavage of 0. In the case of G2U A12C C13U A39U C46A, the self-cleavage is reported as 0.01. G2U C13A C37A gave a self-cleavage of 0.01. Work on G2U G5U A16U C23G C42G C45A yielded a self-cleavage of 0.01. Work on G2U C8A U32A G33C yielded a self-cleavage of 0.06. With G2U G5A A12U C13A C23A the self-cleavage was 0.05. G2U C3U G22C U38C G44U showed a self-cleavage of 0.12. Work on G2U A12C G21A yielded a self-cleavage of 0.02. G2U C13G C37G gave a self-cleavage of 0.01. Work on G2U A11U C15U C23A A26G C31U A41U yielded a self-cleavage of 0. G2U A11U U28C G33A C37U showed a self-cleavage of 0.02. Variant G2U G5A G30C U38A has a self-cleavage of 0.04. With G2U A16G C18G C45U the self-cleavage was 0.02. With G2U C8A A12U C13G U34A C46A the self-cleavage was 0.07. G2U C3U C10G U38A showed a self-cleavage of 0.03. G2U C15U C18U G19U showed a self-cleavage of 0.05. Work on G2U C10A C13G yielded a self-cleavage of 0. G2U C13A U34C G36U A39G showed a self-cleavage of 0.01. Variant G2U C3G A24C C31A has a self-cleavage of 0.02. Work on G2U A26C G29A C31U yielded a self-cleavage of 0.03. With G2U C10A G22C C42G the self-cleavage was 0.01. In the case of G2U A12U C46A, the self-cleavage is reported as 0. For G2U A12U C46U, the self-cleavage was 0.01. G2U C10G G17U C31U G44A showed a self-cleavage of 0.01. Variant G2U A12C A16C G29U G35C C46U has a self-cleavage of 0. With G2U C37A G40A the self-cleavage was 0.04. Work on G2U G5U A11U G44A yielded a self-cleavage of 0. Work on G2U A14G A26C U34C yielded a self-cleavage of 0.01. For G2U C3U G17U G19A G22A G27A, the self-cleavage was 0.21. For G2U C3A A39G, the self-cleavage was 0.29. G2U C8A C13A C18A gave a self-cleavage of 0. Variant G2U C13A A16G has a self-cleavage of 0.02. Work on G2U C3G C13U A25C G30U yielded a self-cleavage of 0.08. G2U C23G G30A A41G U43G showed a self-cleavage of 0. With G2U A12C A16G C23G the self-cleavage was 0.01. Work on G2U C8A C37U C46A yielded a self-cleavage of 0.02. G2U C10U C13A A14U G17U G22U showed a self-cleavage of 0.02. Variant G2U A24C G27C has a self-cleavage of 0.08. Work on G2U G5A G19A C42A yielded a self-cleavage of 0.08. With G2U A12U C15A C31U C37G the self-cleavage was 0.01. G2U A16U U20A showed a self-cleavage of 0.03. G2U A11G G22U A39C A41U C42A gave a self-cleavage of 0. Variant G2U A24U A26C U32G has a self-cleavage of 0.05. G2U A14G G30U G33C G40U G44A showed a self-cleavage of 0.01. In the case of G2U C3A C42A C45A C46A, the self-cleavage is reported as 0.19. Work on G2U C8A U9C G17U G44A yielded a self-cleavage of 0.05. G2U C13G G19U A25C gave a self-cleavage of 0.03. With G2U A26C G44U the self-cleavage was 0.02. Work on G2U A26C U43A C45A yielded a self-cleavage of 0.02. G2U C13U C18G G27U showed a self-cleavage of 0.01. G2U C13G U28A G30A U32A showed a self-cleavage of 0.02. With G2U C3U G19U C23U the self-cleavage was 0.36. In the case of G2U A16U C23G, the self-cleavage is reported as 0. G2U C8G A12C G19C G36U gave a self-cleavage of 0.01. For G2U G5C A6G G17U, the self-cleavage was 0.06. Variant G2U G5A A16U A25G U28G C46A has a self-cleavage of 0.01. Work on G2U C15A G19A A24U A26U U38C yielded a self-cleavage of 0.01. For G2U A12G C37G G44U, the self-cleavage was 0.1. For G2U C13A A39G, the self-cleavage was 0.03. With G2U C3U U34A C37A G40U the self-cleavage was 0.01. G2U C8U U34C G36A C37U gave a self-cleavage of 0.12. G2U A12G C13G G29U U38C showed a self-cleavage of 0.01. G2U G5C G30U C45G gave a self-cleavage of 0.02. With G2U C10A G19U G21U the self-cleavage was 0.02. With G2U C3U G36A the self-cleavage was 0.3. G2U C8G A16U C18U C42U gave a self-cleavage of 0.16. G2U C10G G21C G29U gave a self-cleavage of 0. Work on G2U C18U G36C U43C C45G yielded a self-cleavage of 0.02.
